PMC6919601, “Identification of Plasmodium dipeptidyl aminopeptidase allosteric inhibitors by high throughput screening” (PLoS ONE, 2019)
Out of some 110,000 compounds screened, about 230 (0.21%) showed an effect of 50% or more. The list shows a part of the results.

Target: DPAP1 (Plasmodium falciparum, UniProt Q8IIJ9)
Experiment: primary screen, percent inhibition; read by cleavage of a fluorogenic dipeptide substrate; higher = more effect of the substance
Parameters: species or system P. falciparum D10 trophozoite lysates; single well
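Further: 30 min substrate incubation versus DMSO and 10 µM JCP410 controls.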

Sequence of DPAP1 (Q8IIJ9 whole entry, looked up): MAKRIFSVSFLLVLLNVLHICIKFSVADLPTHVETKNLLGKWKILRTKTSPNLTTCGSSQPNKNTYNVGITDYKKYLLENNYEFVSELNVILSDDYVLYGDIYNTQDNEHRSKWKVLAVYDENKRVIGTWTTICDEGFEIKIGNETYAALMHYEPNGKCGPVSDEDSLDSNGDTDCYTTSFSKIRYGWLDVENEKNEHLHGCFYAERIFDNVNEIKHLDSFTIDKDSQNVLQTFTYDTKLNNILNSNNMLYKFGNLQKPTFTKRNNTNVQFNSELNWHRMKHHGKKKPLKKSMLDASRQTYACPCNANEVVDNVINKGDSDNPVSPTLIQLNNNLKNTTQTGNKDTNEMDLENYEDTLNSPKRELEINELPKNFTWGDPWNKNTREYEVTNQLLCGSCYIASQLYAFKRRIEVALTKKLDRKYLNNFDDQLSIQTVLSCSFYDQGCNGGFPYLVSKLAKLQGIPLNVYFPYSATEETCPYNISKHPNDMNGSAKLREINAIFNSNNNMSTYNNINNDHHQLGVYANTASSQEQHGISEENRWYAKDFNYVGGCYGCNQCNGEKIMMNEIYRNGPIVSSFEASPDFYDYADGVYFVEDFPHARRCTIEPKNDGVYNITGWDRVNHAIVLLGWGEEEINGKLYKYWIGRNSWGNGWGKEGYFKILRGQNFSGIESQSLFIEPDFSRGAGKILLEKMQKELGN

Going from `COc1cc(OC)cc(-c2cc3nc(C)c(CCC(=O)NC(C)CCc4ccco4)c(C)n3n2)c1` (stereo not drawn) to `COc1ccc(OC)c(CN2CCN(Cc3ccco3)CC2)c1`, the “% Inhibition @ 10 uM” value falls from 4.54% to -4.71%.

Compared with `COc1cc(C(=O)NC(Cc2ccccc2)c2nc3ccccc3[nH]2)cc(OC)c1OC` (stereo not drawn), `COc1ccc(-c2cc(C(=O)NC(Cc3ccccc3)C(=O)O)c(C)o2)cc1OC` (stereo not drawn) is lower in “% Inhibition @ 10 uM” value: -2.74% for the first, -3.5% for the second.

First: COC(=O)C1=C(C)NC(=O)NC1c1ccc(Cl)cc1 (stereo not drawn)
Second: CCOC(=O)C1=C(CS(=O)(=O)c2ccc(C)cc2)NC(=O)NC1c1ccc(F)c(F)c1 (stereo not drawn)
The “% Inhibition @ 10 uM” value of the first is lower: -2.18% for the first, -0.431% for the second.

Going from `CC(C)Cn1cc(C(=O)NCC2COc3ccccc3O2)c2c3ccccc3n(C)c2c1=O` (stereo not drawn) to `Cc1ccccc1-c1ccc(C(=O)N[C@@H](CC(C)C)C(=O)NCC#N)s1`, the “% Inhibition @ 10 uM” value falls from -5.77% to -10.1%.

Compared with `Cc1ccc(-n2nc(C)c3c(C)c(CCC(=O)N4CCC(C)CC4)c(C)nc32)cc1`, `C=Cc1ccc(Cn2c(C(=O)O)c(CNC3CCN(C(=O)OCC)CC3)c3ccccc32)cc1` is higher in “% Inhibition @ 10 uM” value: 4.14% for the first, 5.09% for the second.

Compared with `Cc1cc2ncn(C(=O)N3CCCCCC3)c2cc1C`, `O=C(Cn1cc(S(=O)(=O)N2CCCC2)c(S(=O)(=O)N2CCCC2)c1)Nc1nccs1` is lower in “% Inhibition @ 10 uM” value: 0.83% for the first, -1.54% for the second.

Compared with `Cc1ccc(C(=O)Nc2nnc(SCc3ccccc3)s2)cc1C`, `COc1ccccc1OCC(=O)Nc1nc(-c2cccs2)c(NC(=O)c2ccccc2)s1` is lower in “% Inhibition @ 10 uM” value: 1.58% for the first, -7.02% for the second.

First: COCCNC(=O)c1c(NC(=O)c2ccccc2Cl)sc2c1CCCC2
Second: CCCOC(=O)Nc1sc2c(c1C(=O)OCC)CCCC2
The “% Inhibition @ 10 uM” value of the first is lower: -1.52% for the first, 9.47% for the second.

Going from `N#CC1=C(N)OC2=C(CCCC2)C1c1ccccc1Cl` (stereo not drawn) to `N#CC1=C(N)OC2=C(C(=O)CC(c3ccccc3)C2)C1c1cccc(Br)c1` (stereo not drawn), the “% Inhibition @ 10 uM” value falls from 2.7% to -7.5%.

Compared with `CC1=CC2=NC(=O)/C(=C\c3cc(C)n(Cc4ccccc4)c3C)C(=N)N2O1`, `O=C1C=C(Nc2ccccc2)C(=O)N1c1ccccc1Cl` is higher in “% Inhibition @ 10 uM” value: 0.317% for the first, 5.9% for the second.

Going from `Cn1ncc2c(N3CCC(Cc4ccccc4)CC3)ncnc21` to `CC1CCN(S(=O)(=O)c2ccc(C(=O)N3CCN(Cc4ccccc4)CC3)cc2)CC1`, the “% Inhibition @ 10 uM” value falls from -0.0781% to -2.19%.

Compared with `CC(C)Cc1nn2cc(-c3ccc(F)cc3)nc2s1`, `COc1ccc(-c2cc(C(F)(F)F)n3nc(C(=O)N4CCOCC4)cc3n2)cc1` is higher in “% Inhibition @ 10 uM” value: 0.758% for the first, 0.812% for the second.

Going from `CC(=O)Nc1nc2nc(-c3ccccc3)cc(O)n2n1` to `Cn1cnc2cc(NC(=O)c3ccco3)ccc21`, the “% Inhibition @ 10 uM” value falls from -1.56% to -4.52%.

Compared with `CCN(Cc1ccccc1)S(=O)(=O)c1ccc(-c2ccc(O)nn2)o1`, `O=S(=O)(NCc1ccccc1)c1ccc(Cl)cc1` is higher in “% Inhibition @ 10 uM” value: -4.99% for the first, 2.76% for the second.

First: COc1cc(CNc2ccc3c(c2)OCCO3)ccc1OCC(N)=O
Second: COc1ccc(OC)c(NC(=O)Cc2ccc(Br)cc2)c1
The “% Inhibition @ 10 uM” value of the first is lower: -5.14% for the first, -2.76% for the second.

Going from `CCC(C)c1ccc(NC(=O)CCC(=O)O)cc1` (stereo not drawn) to `Cc1ccc(C(=O)Nc2ccc(C(C)C)cc2)o1`, the “% Inhibition @ 10 uM” value falls from 2.08% to 0.316%.

Going from `O=C1C2C3CCC(O3)C2C(=O)N1c1nc[nH]n1` (stereo not drawn) to `Cc1ccc2c(c1)-c1c(cnn1CC(=O)NC1CCCC(C)C1C)CO2` (stereo not drawn), the “% Inhibition @ 10 uM” value falls from 0.716% to -9.67%.

Compared with `Cc1ccc(C(=O)Nc2sc3c(c2C#N)C(C)(C)OC3(C)C)cc1`, `Cc1ccc(OC(C)C(=O)Nc2ccc(O)cc2)cc1` (stereo not drawn) is higher in “% Inhibition @ 10 uM” value: -2.63% for the first, 1.28% for the second.

Compared with `COc1cc(C2C(C#N)=C(N)Oc3[nH]nc(C)c32)ccc1COc1ccc(F)cc1` (stereo not drawn), `Cn1c(SCc2ccc(Cl)cc2)nc(=O)c2c1NC(=O)CC2c1cc(F)ccc1F` (stereo not drawn) is lower in “% Inhibition @ 10 uM” value: 0.385% for the first, -1.11% for the second.

Going from `CCN(CC)C(=O)C1C(=O)NC2(C)CC1c1ccccc1O2` (stereo not drawn) to `CC1CC(C)(C)N(C=O)c2ccccc21` (stereo not drawn), the “% Inhibition @ 10 uM” value rises from -7.83% to -2.08%.

Compared with `O=C1NC(Nc2nccs2)(C(F)(F)F)C(=O)N1CCc1ccccc1` (stereo not drawn), `O=C(Nc1ccc(S(=O)(=O)Nc2nccs2)cc1)c1cccc(Oc2ccccc2)c1` is lower in “% Inhibition @ 10 uM” value: 1.91% for the first, 1.24% for the second.

Going from `COCCNS(=O)(=O)c1c(C)nc2sccn2c1=O` to `Cc1cc(S(=O)(=O)NCc2cccnc2)ccc1F`, the “% Inhibition @ 10 uM” value rises from -9.75% to 0.727%.

Going from `Cc1ccnc(NC(=O)c2cccc(S(=O)(=O)N3CCOCC3)c2)c1` to `CC1CN(S(=O)(=O)c2ccc(Cl)c(C(=O)Nc3ccc(O)cc3)c2)CC(C)O1` (stereo not drawn), the “% Inhibition @ 10 uM” value falls from 0.189% to -8.59%.

First: CN1CCN(Cc2ccc(Br)s2)CC1
Second: CCN1CCN(Cc2cc(Br)c(O)c(OC)c2)CC1
The “% Inhibition @ 10 uM” value of the first is higher: 1.63% for the first, 1.55% for the second.

First: Cc1cccc(C(=O)Nc2ccc3oc(-c4cccnc4)nc3c2)c1
Second: Cc1ccc(NC(=O)CN2C(=O)S/C(=C\c3cc4c(cc3Cl)OCO4)C2=O)cc1
The “% Inhibition @ 10 uM” value of the first is higher: 0.843% for the first, -3.71% for the second.

Going from `C=CCSC1=C(C#N)C(c2cc(Br)c(O)c(OC)c2)CC(=O)N1` (stereo not drawn) to `COc1ccc(/C(O)=C/C=N/c2ccc(F)cc2F)cc1OC`, the “% Inhibition @ 10 uM” value falls from 6.23% to 1.08%.

First: O=S(=O)(c1cccc2nsnc12)N1CCN(C(c2ccccc2)c2ccccc2)CC1
Second: Cc1cc(C)cc(N(CC(=O)N2CCN(c3ccccc3F)CC2)S(C)(=O)=O)c1
The “% Inhibition @ 10 uM” value of the first is lower: 3.21% for the first, 9.62% for the second.

Compared with `O=[N+]([O-])c1ccc(SCCSc2ccc([N+](=O)[O-])cc2)cc1`, `COc1cccc2cc(S(=O)(=O)c3ccc(C(C)(C)C)cc3)c(=O)oc12` is lower in “% Inhibition @ 10 uM” value: 0.505% for the first, -9.17% for the second.

Going from `CC1C=CC(C)[C@H](C(=O)O)[C@H]1C(=O)O` (stereo partly drawn) to `CCOC(=O)c1nnn(-c2ccc(C)cc2C)c1C(=O)OCC`, the “% Inhibition @ 10 uM” value falls from 4.82% to -1.58%.

Going from `CCC(C)(C(=O)Nc1c(C)cccc1C)N(C)C(=O)CN1C(=O)c2ccccc2C1=O` (stereo not drawn) to `Cc1nn(CC(=O)NCCC2=CCCCC2)c(=O)c2cc3ccccc3n12`, the “% Inhibition @ 10 uM” value falls from 6.61% to 1.38%.

Compared with `CC(C)CNS(=O)(=O)c1ccc(OCC(=O)Nc2cc(C(F)(F)F)ccc2Cl)cc1`, `Cc1noc(/C=C/c2ccccc2F)c1S(=O)(=O)N1CCC(C(=O)NC(C)C)CC1` is lower in “% Inhibition @ 10 uM” value: 1.64% for the first, -5.27% for the second.

For `Fc1cccc(F)c1CN1CCOCC1`, the “% Inhibition @ 10 uM” value was -5.31%.
